Results reported in article PMC6602471.
The other results are listed elsewhere or left out. At the low end of the ranking the order means little.

Each sequence was assayed against T1, ETS1 (UniProt P14921) (assay: custom PBM). Conditions: custom protein-binding microarray; buffer, salt, pH and temperature not stated; high values mean tight binding; double strand, one strand shown.
T1 sequence: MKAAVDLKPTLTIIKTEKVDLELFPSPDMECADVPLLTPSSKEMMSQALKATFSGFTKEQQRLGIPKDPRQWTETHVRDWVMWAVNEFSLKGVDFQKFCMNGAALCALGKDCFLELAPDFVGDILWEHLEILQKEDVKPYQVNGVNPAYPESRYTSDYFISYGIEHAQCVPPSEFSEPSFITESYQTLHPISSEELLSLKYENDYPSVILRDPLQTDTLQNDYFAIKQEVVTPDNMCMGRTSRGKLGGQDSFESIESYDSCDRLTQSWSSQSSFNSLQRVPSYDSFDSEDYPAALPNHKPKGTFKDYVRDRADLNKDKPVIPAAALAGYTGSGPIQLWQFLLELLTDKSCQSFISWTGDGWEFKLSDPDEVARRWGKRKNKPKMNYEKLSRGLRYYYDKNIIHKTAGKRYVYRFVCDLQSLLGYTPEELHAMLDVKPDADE

| Sequence | binding signal (log fluorescence intensity) |
| --- | --- |
| TGTCGGCTAAGGGAATGTAGATCACGTGAATGAAAAGTCTTGATTCGCTTGACGCTGCTG | 8.31 |
| GTGTATAGGATCCCATCCAACACACGTGTTAAATTGGTCTTGATTCGCTTGACGCTGCTG | 8.29 |
| GTGTATAGGATCCCATCCAACACAGGTGTTAAAATGGTCTTGATTCGCTTGACGCTGCTG | 8.15 |
| TCCGGCTACCAGCTCCACCCACTTTAGGCCTTGTAGGTCTTGATTCGCTTGACGCTGCTG | 8.2 |
| CGGAAGTGTGGTAAACGTCGGATATCCGGTTCTTCTGTCTTGATTCGCTTGACGCTGCTG | 11.5 |
| CTGGGACTTGACGCAACTCTGCCACGTGGGTCGTTTGTCTTGATTCGCTTGACGCTGCTG | 8.25 |
| CACAATATTTACAGTAATGTAGCACGCGTAACTCCTGTCTTGATTCGCTTGACGCTGCTG | 8.19 |
| TAAAGGGAAGACGGTTGTGGTAGTGCCGGGTATTAAGTCTTGATTCGCTTGACGCTGCTG | 8.44 |
| CAGCATAGGACTTCTTCCCTGAAGCAAGTGATAACCGTCTTGATTCGCTTGACGCTGCTG | 8.47 |
| CTGGGACTTGACCCAACTCTCCCACGTGGGTCGTTTGTCTTGATTCGCTTGACGCTGCTG | 8.38 |
| CACAATTTTTACAGTAATGTAGCACGCGTAATTCCTGTCTTGATTCGCTTGACGCTGCTG | 8.4 |
| TCCTGACTTATATATGCGAATGCACATGAATAGACCGTCTTGATTCGCTTGACGCTGCTG | 8.13 |
| TACTGCCTTATATATGCGAATGCACATGAATAGACCGTCTTGATTCGCTTGACGCTGCTG | 8.22 |
| CACAATTTTTACAGTAATGTAGCACGCGTAACTCTTGTCTTGATTCGCTTGACGCTGCTG | 8.3 |
| TGTCGGGTAAGGGAATGTAGATCACCTGAATGAAAAGTCTTGATTCGCTTGACGCTGCTG | 8.08 |
| GATTAATTTCTGCCCTTATTCGCACGTGCCATAGCAGTCTTGATTCGCTTGACGCTGCTG | 8.17 |
| CAGCATAGGACTTCTACCCTGAAGCAATTGATAACCGTCTTGATTCGCTTGACGCTGCTG | 8.18 |
| TAAAGGGAATACGGTTGTGGTAGTTCCGGGTATTAAGTCTTGATTCGCTTGACGCTGCTG | 8.37 |
| TCCGGCTACCAGCTCCACCCACTTCAGGCCTTGAAGGTCTTGATTCGCTTGACGCTGCTG | 8.28 |
| TAAAGGGAAGACGGTTGTGGTAGTTCCGGGTATTGAGTCTTGATTCGCTTGACGCTGCTG | 8.54 |
| CAGCATAGGACTTCTTCCCTGAAGCAATTTATAACCGTCTTGATTCGCTTGACGCTGCTG | 8.4 |

| Sequence | binding signal (log fluorescence intensity) |
| --- | --- |
| CTGGGACTTTACCCAACTCTGCCACGTGGGTCGTTTGTCTTGATTCGCTTGACGCTGCTG | 8.13 |
| TGAAGGGAAGACGGTTGTGGTAGTTCCGGGTATTAAGTCTTGATTCGCTTGACGCTGCTG | 8.51 |
| TGTCGCGTAAGGGAATGTAGATCACGTGAATGAAAAGTCTTGATTCGCTTGACGCTGCTG | 8.06 |
| GATTAATTTCGGCCCTTATTCGCACGTGCCATAACAGTCTTGATTCGCTTGACGCTGCTG | 8.19 |
| TGTCGGGTAAGGGAATGTAGATCACGTGACTGAAAAGTCTTGATTCGCTTGACGCTGCTG | 8.33 |
| TAAAGGGTAGACGGTTGTGGTAGTTCCGGGTATTAAGTCTTGATTCGCTTGACGCTGCTG | 8.38 |
| GATTAATTTCTGCCCTTATTCGCACGTGCCATAACTGTCTTGATTCGCTTGACGCTGCTG | 8.23 |
| GATTAATTTCTGCCCTTATTCGCACGTACCATAACAGTCTTGATTCGCTTGACGCTGCTG | 8.13 |
| GTGTATAGGACCCCATCCAACACACGTGTTAAAATGGTCTTGATTCGCTTGACGCTGCTG | 8.26 |
| CACAATTTTTACCGTAATGTAGCACGCGTAACTCCTGTCTTGATTCGCTTGACGCTGCTG | 8.41 |
| GTGTATAGGATCCAATCCAACACACGTGTTAAAATGGTCTTGATTCGCTTGACGCTGCTG | 8.16 |
| CACAATTTTTACAGTAGTGTAGCACGCGTAACTCCTGTCTTGATTCGCTTGACGCTGCTG | 8.33 |
| GCTGCTGCGGTGCATACCCCACCGGATGTGCCCCCGGTCTTGATTCGCTTGACGCTGCTG | 9.95 |
| GATTAATTTCCGCCCTTATTCGCACGTGCCATAACAGTCTTGATTCGCTTGACGCTGCTG | 13.9 |
| TAAAGGGAAGACGGTTGTGGTAGTTCCGGGTAATAAGTCTTGATTCGCTTGACGCTGCTG | 8.57 |
| CAGCATAGGAATTCTTCCCTGAAGCAATTGATAACCGTCTTGATTCGCTTGACGCTGCTG | 8.42 |
| CTGGGACTTGACCCAACTCTGCCACGTGGGTCGTGTGTCTTGATTCGCTTGACGCTGCTG | 8.17 |
| GGTGCTGCGGTGCATACCCCACCGGATGTGACCCCGGTCTTGATTCGCTTGACGCTGCTG | 10.2 |
| GTGTTTAGGATCCCATCCAACACACGTGTTAAAATGGTCTTGATTCGCTTGACGCTGCTG | 8.22 |
| TGTCGGGTAAGGCAATGTAGATCACGTGAATGAAAAGTCTTGATTCGCTTGACGCTGCTG | 8.1 |
| TCCGGCTACCAGGTCCACCCACTTCAGGCCTTGTAGGTCTTGATTCGCTTGACGCTGCTG | 8.34 |

| Sequence | binding signal (log fluorescence intensity) |
| --- | --- |
| TACTGACCTATATATGCGAATGCACATGAATAGACCGTCTTGATTCGCTTGACGCTGCTG | 8.12 |
| GGAAAAAGGCCCAGGGTAACAACGGAAGTGGGCTTAGTCTTGATTCGCTTGACGCTGCTG | 9.4 |
| TGTCGGGTAAGGGAATGTAGATCCCGTGAATGAAAAGTCTTGATTCGCTTGACGCTGCTG | 8.3 |
| TACTGACTTATATATGCGATTGCACATGAATAGACCGTCTTGATTCGCTTGACGCTGCTG | 8.26 |
| GATTAATTTCTGCCATTATTCGCACGTGCCATAACAGTCTTGATTCGCTTGACGCTGCTG | 8.29 |
| CAGCATAGCACTTCTTCCCTGAAGCAATTGATAACCGTCTTGATTCGCTTGACGCTGCTG | 8.23 |
| GGAAAAAGGCCCAGGGTAACACAGGAAGTGGGCTTAGTCTTGATTCGCTTGACGCTGCTG | 9.75 |
| TACTGACTTATATATCCGAATGCACATGAATAGACCGTCTTGATTCGCTTGACGCTGCTG | 8.35 |
| GCTGCTGCGGTGCATTCCCCACCGGATGTGACCCCGGTCTTGATTCGCTTGACGCTGCTG | 10.2 |
| TGTCGGGTAAGGGAATGTAGACCACGTGAATGAAAAGTCTTGATTCGCTTGACGCTGCTG | 8.19 |
| CAGCATAGGACTTCCTCCCTGAAGCAATTGATAACCGTCTTGATTCGCTTGACGCTGCTG | 12.7 |
| CAGCATAGGACTTCTTCCCCGAAGCAATTGATAACCGTCTTGATTCGCTTGACGCTGCTG | 8.16 |
| CACAATTTTTACAGTAATGTAGCACGCGTCACTCCTGTCTTGATTCGCTTGACGCTGCTG | 8.11 |
| TGTCGGGTAAGGGTATGTAGATCACGTGAATGAAAAGTCTTGATTCGCTTGACGCTGCTG | 8.34 |
| GATGCTGCGGTGCATACCCCACCGGATGTGACCCCGGTCTTGATTCGCTTGACGCTGCTG | 10.4 |
| CTGGGACTTGACCCAACTCTGCCACGTGGGTCGTCTGTCTTGATTCGCTTGACGCTGCTG | 8.26 |
| TGTCGGGTACGGGAATGTAGATCACGTGAATGAAAAGTCTTGATTCGCTTGACGCTGCTG | 8.03 |
| CTGGGACTTGACCCAATTCTGCCACGTGGGTCGTTTGTCTTGATTCGCTTGACGCTGCTG | 8.19 |
| CAGCATAGGATTTCTTCCCTGAAGCAATTGATAACCGTCTTGATTCGCTTGACGCTGCTG | 8.31 |
| CACAATTTTTACAGGAATGTAGCACGCGTAACTCCTGTCTTGATTCGCTTGACGCTGCTG | 8.26 |
| TGTCGGGTAAGGGAATGTAGATCGCGTGAATGAAAAGTCTTGATTCGCTTGACGCTGCTG | 8.24 |

| Sequence | binding signal (log fluorescence intensity) |
| --- | --- |
| AACTGACTTATATATGCGAATGCACATGAATAGACCGTCTTGATTCGCTTGACGCTGCTG | 8.32 |
| GCTGCTGCGGTGCATAACCCACCGGATGTGACCCCGGTCTTGATTCGCTTGACGCTGCTG | 10.4 |
| TCCGGCTACCAGCTCAACCCACTTCAGGCCTTGTAGGTCTTGATTCGCTTGACGCTGCTG | 8.14 |
| TCCGGCTACCAGCTCCACCCGCTTCAGGCCTTGTAGGTCTTGATTCGCTTGACGCTGCTG | 8.15 |
| GGAAAAAGGCCCAGGGTTACACCGGAAGTGGGCTTAGTCTTGATTCGCTTGACGCTGCTG | 11.8 |
| GGAAAAAGGCCCAGGGTAACACCGGAAGTGTGCTTAGTCTTGATTCGCTTGACGCTGCTG | 11.7 |
| CGGAACTGTCGTAAACGTCGGATATCCGGTTCTTCTGTCTTGATTCGCTTGACGCTGCTG | 11.8 |
| GGACAAAGGCCCAGGGTAACACCGGAAGTGGGCTTAGTCTTGATTCGCTTGACGCTGCTG | 12 |
| GGAAAAAGGCCCAGGGTAACACCGGAAGGGGGCTTAGTCTTGATTCGCTTGACGCTGCTG | 9.53 |
| GATTAACTTCTGCCCTTATTCGCACGTGCCATAACAGTCTTGATTCGCTTGACGCTGCTG | 8.07 |
| TGCGGCTACCAGCTCCACCCACTTCAGGCCTTGTAGGTCTTGATTCGCTTGACGCTGCTG | 8.24 |
| GCTGCTGCGGTGCATACCCCACCGGATGTGAGCCCGGTCTTGATTCGCTTGACGCTGCTG | 9.89 |
| CACAATTTTTACAGTAATGTAGCAGGCGTAACTCCTGTCTTGATTCGCTTGACGCTGCTG | 8.17 |
| CAGCATAGGACTTCTTCCCTCAAGCAATTGATAACCGTCTTGATTCGCTTGACGCTGCTG | 8.19 |
| GGAAAAAGGCCCAGGGTAACGCCGGAAGTGGGCTTAGTCTTGATTCGCTTGACGCTGCTG | 10.7 |
| CGGAAGTGTCGTAAACGTCAGATATCCGGTTCTTCTGTCTTGATTCGCTTGACGCTGCTG | 11.6 |
| CGGAAGTGTCGTAAACGTCGGATATTCGGTTCTTCTGTCTTGATTCGCTTGACGCTGCTG | 8.55 |
| CGGAAGTGTCGTACACGTCGGATATCCGGTTCTTCTGTCTTGATTCGCTTGACGCTGCTG | 11.6 |
